Entries after “also recorded” stand apart in the source; their conditions may differ. Like-named read-outs stand apart in the source and are kept apart here.
Key:
[1] = system: NPM1 on the cell surface of cancer cells (OCI-AML3 cells); assay: Live cell and fixed/permeabilized cell microscopy of OCI-AML3 cells; type: cell-based, human
Description: The ability of Ab2.2 to bind to NPM1 on the cell surface of cancer cells (OCI-AML3 cells) was tested using both live cell microscopy and microscopy of fixed and permeabilized cells. Ab2.2 was compared to commercially available NPM1 antibodies. The commercially available NPM1 antibody used was Santa Cruz (SC) Anti-NPM1-AF647. […] Therefore, Ab2.2 detects more cytoplasmic NPM1 in mutant OCI-AML3 cells compared to commercially available NPM1antibodies (FIG. 14).

[2] = In vivo toxicity in wild-type mice; design: species or system C57BL/6J mice; settings: 2.5, 5 or 10 mg/kg IP, one dose per week, four doses; D1-D27
Description: To assess the toxicity of Ab2.2 in vivo, wild-type (WT; C57BL/6J) mice received weekly treatment of Ab2.2. There were 5 mice per group. The target group received Ab2.2 administered by IP injection at a dose of 2.5 mg/kg, 5 mg/kg, or 10 mg/kg. The control group was administered 5 mg/kg of IgG (FIG. 20A). Four doses total were delivered, one dose per week. Weekly bleeds were performed for sample collection on days (D) 1, 7, 14, 20 and 27 of treatment. On D1, D7, D14, D20 and D27 mice were weighed, and samples were tested for white blood cells (WBC), platelets (PLT) and hemoglobin (HGB).

MLL-AF9/Flt3-ITD AML [3] = assay: Efficacy model 2: LSC targeting in secondary recipients; type: in vivo, mice
Description: Efficacy model 2 was also used to assess the LSC targeting of Ab2.2 in secondary recipients (FIG. 23A). The transplanted primary murine cells were MLL-AF9/Flt3-ITD AML and a syngeneic AML mouse model was used. The control group received 5 mg/kg dose (IgG) and the target group received 5 mg/kg dose (Ab2.2). One dose of Ab2.2 was administered before secondary recipients received transplantation. Secondary recipients in the control group received transplanted cells from IgG treated mouse. The target group received transplanted cells from Ab2.2 treated mouse. The same number of cells were transplanted, and a survival assay, flow cytometry, examination of engraftment and LSC functional measurement were performed. […] WBC count was decreased in Ab2.2 treated mice and PLT was increased (FIG. 23F). […] The spleens of Ab2.2 treated secondary recipients weighed less than the IgG treated mice (FIG. 23H). […] The bone marrow (BM) and peripheral blood (PB) were assessed for percentage (%) of AML. In both the BM and PB there was a reduction in AML % in Ab2.2 treated groups compared to IgG controls (FIG. 23I).

[4] = system: Npm1c on Dmnt3a R882H mutant cells; assay: Staining of Dnmt3a R882H mutant (pre-leukemia) cells; type: cell-based; settings: single Dmnt3a R882H mutant cells; vs IgG control
From the text: DNMT3a mutations are directly associated with clonal hematopoiesis of indeterminate potential (CHIP) and pre-leukemia. To test whether Ab2.2 could detect Npm1c on Dmt3a R882H mutant cells Dmnt3a^R882H/−, and Dmnt3a^R882H/−/Npm1c cells were stained with either IgG control or Ab2.2.

AML bone marrow blasts = assay: Flow cytometry of AML patient bone marrow samples; type: cell-based, human
From the text: To determine whether Ab2.2 targets NPM1 in cancer cells in vitro patient samples collected from The Dana-Farber Cancer Institute (DFCI) and the United Kingdom (UK) were used. Cells were isolated from the bone marrow of 12 acute myeloid leukemia (AML) patients from DFCI (FIG. 16) and 15 AML patients from UK (FIG. 18) and analyzed using flow cytometry (FIGS. 17A-17B and FIGS. 19A-19C). […] Furthermore, NPM1c blasts are CD34-low, allowing examination of LSC population, which are highly bound by Ab2.2. Therefore, Ab2.2 binds best to LSCs in NPM1c patient marrow (FIGS. 19D-19E). The results from DFCI indicate that Ab2.2 strongly stains the blasts, agnostic to mutational status, disease state, or prior treatment. […] Also, in NPM1c patients who's LSCs are CD34-, Ab2.2 strongly stains and therefore Ab2.2 will target leukemia initiating cells.

[5] = system: MC38 mouse colorectal adenocarcinoma; assay: Efficacy model 4: MC38 solid tumor syngeneic model; type: in vivo, mice; settings: 10 mg/kg, three doses (1 per week); day 10 and day 13
Description: The solid tumor activity of Ab2.2 was assessed in vivo using efficacy model 4. In efficacy model 4, mice that had received transplantation were subjected to weekly treatment of Ab2.2 and assessed for overall survival, calculation of tumor burden and molecular phenotyping (FIG. 25A). The transplanted cells were from a MC38 mouse colorectal adenocarcinoma. A syngeneic mouse model was used. The control group received 10 mg/kg dose (IgG) and the target group received 10 mg/kg dose (Ab2.2). A total of three doses (1 per week) were administered.

[6] = molecular target: T1, NPM1 on the cell surface of healthy, non-cancerous, cells (Homo sapiens, UniProt P06748); assay: Flow cytometry of healthy donor bone marrow cells; type: cell-based; settings: for cells double positive for CD34+ and Ab2.2: healthy HSCs
T1 construct: from tissue; host or cells: healthy donor bone marrow (CD45+, CD33+, CD34+ cells)
Description: The ability of Ab2.2 to bind to NPM1 on the cell surface of healthy, non-cancerous, cells was also tested using flow cytometry. The cells measured for Ab2.2 binding were leukocytes (CD45+ cells), myeloid cells (CD33+ cells), and hematopoietic stem cells (“HSCs”; CD34+ cells). Only 3.78% of cells in Donor 1 were double positive for CD34+ and Ab2.2 (Donor 2 and Donor 3 had less than 3%).

MLL-AF9/Flt3-ITD AML [7] = assay: Efficacy model 3: immunocompromised (NSG) AML mouse model; type: in vivo; settings: NSG mice; 5 mg/kg weekly, four doses
Description: The immune mediated killing ability of Ab2.2 was assessed using efficacy model 3. In efficacy model 3, NSG mice receiving transplantation of primary murine AML cells were given weekly Ab2.2 treatments and assessed for overall survival (FIG. 24A). The transplanted primary murine cells were MLL-AF9/Flt3-ITD AML. The mouse model used was an immunocompromised AML mouse model (NSG). The control group received 5 mg/kg dose (IgG) and the target group received 5 mg/kg dose (Ab2.2). A total of four doses of Ab2.2 were administered.

[8] = three healthy donor bone marrow samples

T1 sequence (P06748 whole entry): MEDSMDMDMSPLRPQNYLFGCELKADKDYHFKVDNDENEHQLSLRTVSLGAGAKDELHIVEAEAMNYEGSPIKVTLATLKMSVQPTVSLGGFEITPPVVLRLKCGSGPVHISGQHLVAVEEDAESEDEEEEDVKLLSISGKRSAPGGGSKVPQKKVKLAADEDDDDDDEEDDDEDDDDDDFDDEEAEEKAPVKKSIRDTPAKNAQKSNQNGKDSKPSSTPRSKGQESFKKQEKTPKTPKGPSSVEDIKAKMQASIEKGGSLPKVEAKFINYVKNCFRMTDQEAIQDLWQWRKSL

B1: Ab2.2 (antibody)
heavy: [sequence of about 100 residues not given]WRNNAFDYWGQGTLVTVSS[sequence of human IgG1 constant region not given]
light: SSELTQDPAVSVALGQTVRITCQGDSLRSYYASWYQQKPGQAPVLVIYGKNNRPSGIPDRFSGSSSGNTASLTITGAQAEDEADYYCNSSPRLKHRVVFGGGTKLTVLGQPKAAPSVTLFPPSSEELQANKATLVCLISDFYPGAVTVAWKADSSPVKAGVETTTPSKQSNNKYAASSYLSLTPEQWKSHRSYSCQVTHEGSTVEKTVAPTECS
cell surface staining, live cell microscopy [1]: performs similarly to commercially available NPM1 antibodies
cell surface staining, live cell microscopy ([1]; listed as maAb2): stain surface puncta
toxicity in mice (weight, WBC, PLT, HGB) [2]: did not result in observable toxicity
mean survival of secondary recipients (MLL-AF9/Flt3-ITD AML [3]; cells transplanted from mouse given one 5 mg/kg dose): about 50 days
AML % in bone marrow (BM) (MLL-AF9/Flt3-ITD AML [3]; compared to IgG controls): reduction
AML % in peripheral blood (PB) (MLL-AF9/Flt3-ITD AML [3]; compared to IgG controls): reduction
staining of the stem cell compartment (MLL-AF9/Flt3-ITD AML [3]; flow cytometry, MLL-AF9 model): fractionally better than the bulk tumor
PLT (MLL-AF9/Flt3-ITD AML [3]; secondary recipients): increased
WBC count (MLL-AF9/Flt3-ITD AML [3]; secondary recipients): decreased
WBC over time (MLL-AF9/Flt3-ITD AML [3]; secondary recipients, compared to IgG treated): remain lower
spleen weight (MLL-AF9/Flt3-ITD AML [3]; secondary recipients, vs IgG treated mice): weighed less
surface detection of Npm1c [4]: high surface detection
binding to AML bone marrow blasts (AML bone marrow blasts; DFCI patient samples (Patient 5), flow cytometry): strongly binds
binding to LSC population (AML bone marrow blasts; NPM1c patient marrow, CD34-low blasts): highly bound
binding to NPM1c AML bone marrow (AML bone marrow blasts; UK patient samples, flow cytometry): strongly binds
tumor volume [5]: reduces tumor volume
cells double positive for CD34+ and Ab2.2 ([6]; Donor 1): 3.78%
cells double positive for CD34+ and Ab2.2 ([6]; Donor 2): less than 3%
cells double positive for CD34+ and Ab2.2 ([6]; Donor 3): less than 3%
binding to CD33+ cells [6, 8]: partially binds
binding to healthy HSCs (CD34+ cells) [6, 8]: little to no binding; also recorded: no observable binding
mean survival (MLL-AF9/Flt3-ITD AML [7]): about 30 days
survival benefit without an intact immune system (MLL-AF9/Flt3-ITD AML [7]): does not provide survival benefit

Source: patent publication US20250325717A1, “ANTI-NUCLEOPHOSMIN 1 ANTIBODY AND ANTIBODY CONJUGATE COMBINATION THERAPIES” (The Children's Medical Center Corporation, priority 2022, published 2025)
